B1: GPR68, Q15743 (parent)
chain: MGNITADNSSMSCTIDHTIHQTLAPVVYVTVLVVGFPANCLSLYFGYLQIKARNELGVYLCNLTVADLFYICSLPFWLQYVLQHDNWSHGDLSCQVCGILLYENIYISVGFLCCISVDRYLAVAHPFRFHQFRTLKAAVGVSVVIWAKELLTSIYFLMHEEVIEDENQHRVCFEHYPIQAWQRAINYYRFLVGFLFPICLLLASYQGILRAVRRSHGTQKSRKDQIQRLVLSTVVIFLACFLPYHVLLLVRSVWEASCDFAKGVFNAYHFSLLLTSFNCVADPVLYCFVSETTHRDLARLRGACLAFLTCSRTGRAREAYPLGAPEASGKSGAQGEEPELLTKLHPAFQTPNSPGSGGFPTGRLA

In series [1] the parent is B1. Kind of series: cAMP reporter score (Enrich2 score, wild type = 0); higher = more signal; HEK293T, FACS bins.
Variants of B1 are the subject of series [2]. Kind of series: surface expression score (Enrich2 score, wild type = 0); higher = more signal; HEK293T, FACS bins.

Scores whose standard error is large were omitted. Two further conditions of the source, in which the scores hardly spread, are not listed. In variant names, del marks residues removed and ins residues inserted between the two positions. For part of these data: The concentration of ogerin is not given here.

Turning to F359_P360del, the cAMP reporter score in series [1] (pH 5.5) is 0.611; in series [1] (pH 6), 0.045; in series [1] (pH 6, modulator: ogerin), 1.12; in series [1] (pH 6.5, modulator: ogerin) it was 0.639. Moreover, in series [2], the surface expression score was determined as 0.319.
In the same order, the values of R363K are 0.352, 0.498, 0.459, 0.697 and 0.379.
For R363H, the cAMP reporter score was 0.481 in series [1] (pH 5.5); 0.879 in series [1] (pH 6, modulator: ogerin); 1.32 in series [1] (pH 6.5, modulator: ogerin). Also, the surface expression score in series [2] was determined as 0.659.
In the case of R363S, the cAMP reporter score in series [1] (pH 5.5) was -0.908; in series [1] (pH 6), -0.389; in series [1] (pH 6, modulator: ogerin), -0.703; in series [1] (pH 6.5, modulator: ogerin) it was 1.21. In addition, the surface expression score in series [2] was -1.51.
In the same order, the values of R363Q are 1.22, 0.418, 0.556, 0.744 and 1.38.
On to R363E, for which the cAMP reporter score amounted to 1.06 in series [1] (pH 5.5); 0.84 in series [1] (pH 6, modulator: ogerin); 1.73 in series [1] (pH 6.5, modulator: ogerin). Further, the surface expression score in series [2] was found to be 1.
Take R363F: the cAMP reporter score in series [1] (pH 5.5) was 0.651; in series [1] (pH 6) it was -0.018; in series [1] (pH 6, modulator: ogerin), 0.708; in series [1] (pH 6.5, modulator: ogerin), 0.023. Moreover, the surface expression score in series [2] is 0.715.
For the variant R363I, the cAMP reporter score was 0.69 in series [1] (pH 5.5); -0.091 in series [1] (pH 6); 0.226 in series [1] (pH 6, modulator: ogerin); 0.37 in series [1] (pH 6.5, modulator: ogerin). Moreover, the surface expression score in series [2] is -0.64.
R363P: the cAMP reporter score in series [1] (pH 5.5) stood at 0.97; in series [1] (pH 6, modulator: ogerin) it was 0.713.
Take R363T: the cAMP reporter score in series [1] (pH 5.5) is -0.146; in series [1] (pH 6, modulator: ogerin), 0.453; in series [1] (pH 6.5, modulator: ogerin), 0.087.
For R363D, the cAMP reporter score in series [1] (pH 5.5) was found to be 0.206; in series [1] (pH 6), 1.07; in series [1] (pH 6, modulator: ogerin), 0.986; in series [1] (pH 6.5, modulator: ogerin), 0.954. The surface expression score in series [2] is 0.768.
In the same order, the values of R363C are 0.212, 1.74, 1.03, 0.487 and 0.944.
As for R363G, the cAMP reporter score in series [1] (pH 5.5) worked out at 0.984; in series [1] (pH 6) it was 0.608; in series [1] (pH 6, modulator: ogerin), 1.36; in series [1] (pH 6.5, modulator: ogerin) it was 1.9. For the same variant, in series [2], the surface expression score was 1.87.
Regarding R363M, the cAMP reporter score stood at 0.765 in series [1] (pH 5.5); 0.807 in series [1] (pH 6); 1.09 in series [1] (pH 6, modulator: ogerin); 0.352 in series [1] (pH 6.5, modulator: ogerin). For the same variant, the surface expression score in series [2] worked out at 1.19.
In the same order, the values of R363A are -0.071, -0.03, 0.823, 0.549 and 0.326.
On the same counts, the results for R363N are 0.391, -0.292, 0.971, 0.571 and 1.41.
On the same counts, the results for R363L are -0.003, -0.058, 0.304, 0.587 and -0.082.
For the variant G358_F359insG, the cAMP reporter score was 0.83 in series [1] (pH 5.5); 2.15 in series [1] (pH 6); 0.892 in series [1] (pH 6, modulator: ogerin); 1.56 in series [1] (pH 6.5, modulator: ogerin). Moreover, the surface expression score in series [2] was 0.843.
With G358_F359insGS, the cAMP reporter score in series [1] (pH 5.5) worked out at 0.767; in series [1] (pH 6, modulator: ogerin), 0.724; in series [1] (pH 6.5, modulator: ogerin), 1.05. Moreover, the surface expression score in series [2] is 1.6.
Regarding G362del, the cAMP reporter score is 1 in series [1] (pH 5.5); 0.726 in series [1] (pH 6); 0.777 in series [1] (pH 6, modulator: ogerin); 0.376 in series [1] (pH 6.5, modulator: ogerin). Also, the surface expression score in series [2] came to 0.985.
On the same counts, the results for G362_R363del are 0.231, -0.027, 0.198, 0.305 and -0.338.
Regarding S356_G358del, the cAMP reporter score was -0.091 in series [1] (pH 5.5); 0.688 in series [1] (pH 6); 0.922 in series [1] (pH 6, modulator: ogerin); 0.904 in series [1] (pH 6.5, modulator: ogerin). Further, the surface expression score in series [2] was -0.142.
Turning to G355S, the cAMP reporter score is -0.555 in series [1] (pH 5.5); -0.65 in series [1] (pH 6, modulator: ogerin); -0.065 in series [1] (pH 6.5, modulator: ogerin). The surface expression score in series [2] was -0.161.
As for G355Y, the cAMP reporter score in series [1] (pH 5.5) is -0.262; in series [1] (pH 6), -0.543; in series [1] (pH 6, modulator: ogerin) it was -0.385; in series [1] (pH 6.5, modulator: ogerin), -0.942. In series [2], the surface expression score is -0.604.
In the same order, the values of G355T are 0.073, 0.089, -0.853, 0.173 and -0.103.
On the same counts, the results for G355W are 0.246, -0.598, 0.292, -0.748 and -0.292.
As for G355M, the cAMP reporter score in series [1] (pH 5.5) was -0.151; in series [1] (pH 6, modulator: ogerin), 0.855; in series [1] (pH 6.5, modulator: ogerin), 0.444. Further, in series [2], the surface expression score came out at 0.448.
Consider G355P, for which the cAMP reporter score in series [1] (pH 5.5) was 0.5; in series [1] (pH 6), -0.153; in series [1] (pH 6, modulator: ogerin) it was 0.476; in series [1] (pH 6.5, modulator: ogerin) it was 0.255. Moreover, the surface expression score in series [2] stood at 1.75.
With G355V, the cAMP reporter score in series [1] (pH 5.5) is -0.751; in series [1] (pH 6), -0.145; in series [1] (pH 6, modulator: ogerin) it was -0.66; in series [1] (pH 6.5, modulator: ogerin), -0.214. The surface expression score in series [2] is -0.334.
On the same counts, the results for G355Q are 1.12, 0.222, 0.281, 0.486 and 1.13.
In the same order, the values of G355L are 0.082, 0.459, 0.035, -0.204 and 0.114.
As to G355R, the cAMP reporter score in series [1] (pH 5.5) is 0.018; in series [1] (pH 6), 0.998; in series [1] (pH 6, modulator: ogerin) it was 0.041; in series [1] (pH 6.5, modulator: ogerin), 0.459. Moreover, the surface expression score in series [2] is -0.273.

(Values after the GPR68 mutational scans of Howard et al. (2025).)
